{
  "source": "the supplement of paper PMC8728848",
  "binders": {"B1": {"name": "PfulAvr4 2 (Pseudocercospora fuligena) (protein)", "chain": "HHHHHHDYKDDDDKAKPIKPFACPPKDFTTTKCQGPVDCLYANPLSCLGYIQCVCDDDACSTATPYAKSCPTGLAWVEKLKRCDGIKKSACPKKMYEGS"}},
  "assay_in_all_cases": "glycan array binding signal (z-score within array); higher = stronger binding",
  "details_in_all_cases": "glycan notation: IUPAC condensed, linker removed",
  "key": {"[1]": {"molecular_target": "Neu5Ac(a2-3)Gal(b1-4)[Fuc(a1-3)]GlcNAc(b1-3)Gal(b1-4)GlcNAc", "in_short": "(§1)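 Arrays were curated from the Consortium for Functional Glycomics database, 3228 in total, and kept only where the protein sequence was available. Binding is expressed as a within-array Z-score. This score was averaged across arrays of the same protein sequence at different concentrations or buffers and across linkers, and negative values can be read as non-binding.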"}, "[2]": {"molecular_target": "Neu5Ac(a2-3)Gal(b1-4)[Fuc(a1-3)]GlcNAc(b1-3)Gal(b1-4)[Fuc(a1-3)]GlcNAc(b1-3)Gal(b1-4)[Fuc(a1-3)]GlcNAc", "in_short": "as §1"}, "[3]": {"molecular_target": "Neu5Ac(a2-3)Gal(b1-4)[Fuc(a1-3)]GlcNAc(b1-3)GalNAc", "in_short": "as §1"}, "[4]": {"molecular_target": "Neu5Ac(a2-3)Gal(b1-4)[Fuc(a1-3)]GlcNAc(b1-6)[Gal(b1-3)]GalNAc", "in_short": "as §1"}, "[5]": {"molecular_target": "Neu5Ac(a2-3)Gal(b1-4)[Fuc(a1-3)]GlcNAc(b1-6)[Neu5Ac(a2-3)Gal(b1-3)]GalNAc", "in_short": "as §1"}, "[6]": {"molecular_target": "Neu5Ac(a2-3)Gal(b1-4)[Fuc(a1-3)]GlcNAc6S", "in_short": "as §1"}, "[7]": {"molecular_target": "Neu5Ac(a2-3)Gal6S(b1-4)GlcNAc", "in_short": "as §1"}, "[8]": {"molecular_target": "Neu5Ac(a2-3)Gal6S(b1-4)[Fuc(a1-3)]GlcNAc", "in_short": "as §1"}, "[9]": {"molecular_target": "Neu5Ac(a2-3)GalNAc", "in_short": "as §1"}, "[10]": {"molecular_target": "Neu5Ac(a2-3)GalNAc(b1-4)GlcNAc", "in_short": "as §1"}, "[11]": {"molecular_target": "Neu5Ac(a2-3)[GalNAc(b1-4)]Gal(b1-4)Glc", "in_short": "as §1"}, "[12]": {"molecular_target": "Neu5Ac(a2-3)[GalNAc(b1-4)]Gal(b1-4)GlcNAc", "in_short": "as §1"}, "[13]": {"molecular_target": "Neu5Ac(a2-3)[GalNAc(b1-4)]Gal(b1-4)GlcNAc(b1-3)GalNAc", "in_short": "as §1"}, "[14]": {"molecular_target": "Neu5Ac(a2-3)[Neu5Ac(a2-6)]GalNAc", "in_short": "as §1"}, "[15]": {"molecular_target": "Neu5Ac(a2-6)Gal", "in_short": "as §1"}, "[16]": {"molecular_target": "Neu5Ac(a2-6)Gal(b1-3)GlcNAc(b1-3)[Gal(b1-4)GlcNAc(b1-6)]Gal(b1-4)Glc", "in_short": "as §1"}, "[17]": {"molecular_target": "Neu5Ac(a2-6)Gal(b1-4)Glc", "in_short": "as §1"}, "[18]": {"molecular_target": "Neu5Ac(a2-6)Gal(b1-4)GlcNAc", "in_short": "as §1"}, "[19]": {"molecular_target": "Neu5Ac(a2-6)Gal(b1-4)GlcNAc(b1-2)Man", "in_short": "as §1"}, "[20]": {"molecular_target": "Neu5Ac(a2-6)Gal(b1-4)GlcNAc(b1-2)Man(a1-3)Man(b1-4)GlcNAc(b1-4)GlcNAc", "in_short": "as §1"}, "[21]": {"molecular_target": "Neu5Ac(a2-6)Gal(b1-4)GlcNAc(b1-2)Man(a1-3)[Gal(b1-4)GlcNAc(b1-2)Man(a1-6)]Man(b1-4)GlcNAc(b1-4)GlcNAc", "in_short": "as §1"}, "[22]": {"molecular_target": "Neu5Ac(a2-6)Gal(b1-4)GlcNAc(b1-2)Man(a1-3)[GlcNAc(b1-2)Man(a1-6)]Man(b1-4)GlcNAc(b1-4)GlcNAc", "in_short": "as §1"}, "[23]": {"molecular_target": "Neu5Ac(a2-6)Gal(b1-4)GlcNAc(b1-2)Man(a1-3)[GlcNAc(b1-4)][Neu5Ac(a2-6)Gal(b1-4)GlcNAc(b1-2)Man(a1-6)]Man(b1-4)GlcNAc(b1-4)GlcNAc", "in_short": "as §1"}},
  "note": "The other results are listed elsewhere or left out.",
  "data": [
    {"binder": "B1", "values": [
      {"measurement": "glycan array binding signal (z-score)", "setting": "[1]", "value": 0.017},
      {"measurement": "glycan array binding signal (z-score)", "setting": "[2]", "value": -0.373},
      {"measurement": "glycan array binding signal (z-score)", "setting": "[3]", "value": 0.545},
      {"measurement": "glycan array binding signal (z-score)", "setting": "[4]", "value": -0.285},
      {"measurement": "glycan array binding signal (z-score)", "setting": "[5]", "value": -0.281},
      {"measurement": "glycan array binding signal (z-score)", "setting": "[6]", "value": -0.309},
      {"measurement": "glycan array binding signal (z-score)", "setting": "[7]", "value": -0.482},
      {"measurement": "glycan array binding signal (z-score)", "setting": "[8]", "value": -0.235},
      {"measurement": "glycan array binding signal (z-score)", "setting": "[9]", "value": 0.081},
      {"measurement": "glycan array binding signal (z-score)", "setting": "[10]", "value": -0.242},
      {"measurement": "glycan array binding signal (z-score)", "setting": "[11]", "value": -0.366},
      {"measurement": "glycan array binding signal (z-score)", "setting": "[12]", "value": -0.373},
      {"measurement": "glycan array binding signal (z-score)", "setting": "[13]", "value": -0.303},
      {"measurement": "glycan array binding signal (z-score)", "setting": "[14]", "value": -0.254},
      {"measurement": "glycan array binding signal (z-score)", "setting": "[15]", "value": -0.44},
      {"measurement": "glycan array binding signal (z-score)", "setting": "[16]", "value": -0.364},
      {"measurement": "glycan array binding signal (z-score)", "setting": "[17]", "value": -0.245},
      {"measurement": "glycan array binding signal (z-score)", "setting": "[18]", "value": -0.318},
      {"measurement": "glycan array binding signal (z-score)", "setting": "[19]", "value": 0.412},
      {"measurement": "glycan array binding signal (z-score)", "setting": "[20]", "value": -0.224},
      {"measurement": "glycan array binding signal (z-score)", "setting": "[21]", "value": 0.229},
      {"measurement": "glycan array binding signal (z-score)", "setting": "[22]", "value": -0.263},
      {"measurement": "glycan array binding signal (z-score)", "setting": "[23]", "value": -0.304}
    ]}
  ]
}
